Several values for one entry are separate records, joined by “and”; a condition that tells them apart may be missing. Equal values may be shown once. The shares of active, inactive and inconclusive entries below differ from those in the screen. For part of these data: Potencies beside an inconclusive call are fits to weak or partial responses and may not hold up. Some structures have more than one record in an assay (separate samples or runs), and their calls can disagree. Activity calls are given as the source filed them. Calls come from the whole dose curve; as a rule, active = well fitted curve in the direction sought with a large enough effect in the repeat runs; inconclusive = weak or mixed curves; inactive = no such curve, though single readings can be large; an effect the other way counts as inactive or inconclusive.
Columns and labels:
[1] = qHTS RealTime-Glo MT Cell Viability Assay in HEK293 cells - 32 hour (AID 1224868); note: nearly all actives have a fitted effect of over 50% in size; for activity change, negative = cytotoxic: top concentration of the series differs between compounds; % is set by controls: 0 for no effect and ±100 for the full control effect
Method in brief: (§1)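 Tox21 10K qHTS, HEK293, 600 cells/well, RealTime-Glo reagent co-dispensed with cells; 5 h preincubation, compound by pintool, 37 C, luminescence at 0–40 h.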

[2] = A CellTox Green Cytotoxicity Assay to monitor cytotoxicity in HEK293 cells - 40 hour (AID 1224871); note: nearly all actives have a fitted effect of over 45% in size
Method in brief: (§2)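 Each value comes from one timepoint of a single continuous run in which HEK293 cells with CellTox Green were exposed to compound for up to 40 h at 37 C, dye fluorescence rising with cell death.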

[3] = A CellTox Green Cytotoxicity Assay to monitor cytotoxicity in HEK293 cells - 0 hour (AID 1224869); note: nearly all actives have a fitted effect of over 50% in size; for Cytotoxicity: % is set by controls: 0 for no effect and ±100 for the full control effect
Method in brief: as §2

[4] = qHTS RealTime-Glo MT Cell Viability Assay in HEK293 cells - 16 hour (AID 1224872); note: nearly all actives have a fitted effect of over 50% in size
Method in brief: as §1

[5] = qHTS RealTime-Glo MT Cell Viability Assay in HEK293 cells - 40 hour (AID 1224874); settings: RealTime-Glo luminescence; max response: stronger effect = lower value; note: nearly all actives have a fitted effect of over 50% in size
Method in brief: (§3)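 qHTS format; HEK293 cells with NanoLuc/prosubstrate reagent, 37 C/5% CO2 for 5 h pre-dosing; compounds 23 nL in DMSO; luminescence at each time point reflects viable cells.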

[6] = A CellTox Green Cytotoxicity Assay to monitor cytotoxicity in HEK293 cells - 24 hour (AID 1224875); note: nearly all actives have a fitted effect of over 45% in size
Method in brief: as §2

[7] = A CellTox Green Cytotoxicity Assay to monitor cytotoxicity in HepG2 cells - 40 hour (AID 1224879); note: nearly all actives have a fitted effect of over 40% in size
Method in brief: (§4)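 Continuous culture of HepG2 cells with a membrane-impermeant DNA dye; rising fluorescence marks dead cells. Compound exposure lasted up to 40 h at 37 C, with reads every 8 h from 0 h.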

[8] = A CellTox Green Cytotoxicity Assay to monitor cytotoxicity in HEK293 cells - 32 hour (AID 1224881); note: nearly all actives have a fitted effect of over 40% in size
Method in brief: as §2

[9] = qHTS RealTime-Glo MT Cell Viability Assay in HepG2 cells - 8 hour (AID 1224873); note: nearly all actives have a fitted effect of over 55% in size
Method in brief: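 HepG2 cells (600/well) mixed with RealTime-Glo MT reagent, settled 5 h at 37 C/5% CO2 before compound addition. Nonlytic NanoLuc luminescence from viable-cell prosubstrate reduction read repeatedly during 40 h treatment at 37 C.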

[10] = A CellTox Green Cytotoxicity Assay to monitor cytotoxicity in HepG2 cells - 24 hour (AID 1224878); note: nearly all actives have a fitted effect of over 45% in size; for Cytotoxicity: % is set by controls: 0 for no effect and ±100 for the full control effect
Method in brief: as §4

[11] = qHTS RealTime-Glo MT Cell Viability Assay in HEK293 cells - 0 hour (AID 1224880); note: nearly all actives have a fitted effect of over 45% in size
Method in brief: as §3
Potency is the fitted concentration of half-maximal effect; tags give direction and shape of the fitted curve.

**Q.** For `CCCCC(CC)COCCO` (configuration not stated), which Potency [1] is on record?
**A.** inactive

**Q.** With `Cc1cccc(C)c1` as the compound, how does the Potency [1] read?
**A.** inactive

**Q.** Which Potency [1] does the source give for `CCc1nnc(NS(=O)(=O)c2ccc(N)cc2)s1` here?
**A.** inactive

**Q.** And the Potency [2]?
**A.** inactive

**Q.** Which Potency [1] does the source give for `O=C1O[C@H](CO)[C@@H](O)[C@H](O)[C@H]1O` here?
**A.** inactive

**Q.** Which Potency [1] does the source give for `O=C1c2ccccc2C(=O)C1c1ccc2ccccc2n1` here?
**A.** inconclusive: 2.73 µM [cytotoxic, full curve]

**Q.** What about the Potency [3] of the same compound?
**A.** inconclusive: 27.3 µM [activator, single point]

**Q.** And the Potency [2]?
**A.** inconclusive: 27.3 µM [activator, single point]

**Q.** And the Potency [4]?
**A.** inconclusive: 3.43 µM [cytotoxic, full curve]

**Q.** What about the Potency [5] of the same compound?
**A.** inconclusive: 2.73 µM [cytotoxic, full curve, poor fit]

**Q.** What about the Potency [6] of the same compound?
**A.** inconclusive: 27.3 µM [activator, single point]

**Q.** What about the Potency [7] of the same compound?
**A.** inactive

**Q.** What about the Potency [8] of the same compound?
**A.** inconclusive: 27.3 µM [activator, single point]

**Q.** With `O=[N+]([O-])c1ccc(F)c(Cl)c1` as the compound, how does the Potency [1] read?
**A.** inactive

**Q.** For `COc1cc2c3cc1Oc1cc(ccc1O)C[C@@H]1c4c(cc(OC)c(O)c4Oc4ccc(cc4)C[C@@H]3N(C)CC2)CC[N+]1(C)C`, which Potency [1] is on record?
**A.** inactive

**Q.** Which Potency [1] does the source give for `COc1cnc(NS(=O)(=O)c2ccc(N)cc2)nc1` here?
**A.** inactive

**Q.** Which results are given for `COCCOC`?
**A.** Potency [1]: active: 0.74 µM; Potency [2]: inactive; Potency [4]: active: 0.932 µM; Potency [5]: active: 0.83 µM

**Q.** For `C=COCCOCCOC=C`, which Potency [1] is on record?
**A.** inactive

**Q.** With `CCCCOC(=O)CCCCCCCC(=O)OCCCC` as the compound, how does the Potency [1] read?
**A.** inactive

**Q.** Which Potency [1] does the source give for `OCCC(F)(F)C(F)(F)C(F)(F)C(F)(F)C(F)(F)C(F)(F)F` here?
**A.** inactive

**Q.** With `Cc1ccc(C(=O)Oc2ccc(C(O)CNC(C)(C)C)cc2OC(=O)c2ccc(C)cc2)cc1` (configuration not stated) as the compound, how does the Potency [1] read?
**A.** inconclusive: 26.8 µM [cytotoxic, single point]

**Q.** And the Potency [3]?
**A.** inactive

**Q.** And the Potency [2]?
**A.** active: 23.9 µM

**Q.** And the Potency [4]?
**A.** inconclusive: 26.8 µM [cytotoxic, single point]

**Q.** What about the Potency [9] of the same compound?
**A.** active: 21.3 µM

**Q.** And the Potency [10]?
**A.** active: 21.3 µM

**Q.** And the Potency [8]?
**A.** active: 26.8 µM

**Q.** What does the source list for `NC(=O)C(c1ccccc1)(c1ccccc1)[C@@H]1CCN(CCc2ccc3c(c2)CCO3)C1`?
**A.** Potency [1]: inconclusive: 21.3 µM [cytotoxic, partial curve]; Potency [2]: active: 21.3 µM; Potency [4]: inconclusive: 21.3 µM [cytotoxic, partial curve, poor fit]; Potency [5]: inconclusive: 21.3 µM [cytotoxic, partial curve]; Potency [6]: active: 21.3 µM; Potency [10]: active: 21.3 µM

**Q.** Which Potency [1] does the source give for `COC1=CC(=O)C[C@@H](C)[C@]12Oc1c(Cl)c(OC)cc(OC)c1C2=O` here?
**A.** inconclusive: 21.7 µM [cytotoxic, partial curve] and inconclusive: 17.4 µM [cytotoxic, full curve]

**Q.** What about the Potency [3] of the same compound?
**A.** inconclusive: 30.6 µM [activator, partial curve]

**Q.** What about the Potency [2] of the same compound?
**A.** inconclusive: 38.6 µM [activator, partial curve, poor fit]

**Q.** And the Potency [5]?
**A.** inconclusive: 17.2 µM [cytotoxic, full curve] and inconclusive: 17.4 µM [cytotoxic, full curve]

**Q.** And the Potency [6]?
**A.** inconclusive: 34.4 µM [activator, partial curve, poor fit]

**Q.** And the Potency [10]?
**A.** active: 38.6 µM and inconclusive: 21.9 µM [activator, full curve, poor fit]

**Q.** What about the Potency [7] of the same compound?
**A.** active: 24.3 µM and active: 21.9 µM and active: 26.8 µM

**Q.** What about the Potency [8] of the same compound?
**A.** inconclusive: 38.6 µM [activator, partial curve, poor fit]

**Q.** With `CCCCCCCCCCO[C@@H]1O[C@H](CO)[C@@H](O)[C@H](O)[C@H]1O` as the compound, how does the Potency [1] read?
**A.** inconclusive: 24.5 µM [cytotoxic, partial curve]

**Q.** And the Potency [2]?
**A.** inconclusive: 49 µM [activator, single point]

**Q.** And the Potency [4]?
**A.** inactive

**Q.** What about the Potency [5] of the same compound?
**A.** inconclusive: 24.5 µM [cytotoxic, partial curve]

**Q.** And the Potency [6]?
**A.** inconclusive: 54.9 µM [activator, single point]

**Q.** What about the Potency [8] of the same compound?
**A.** inconclusive: 49 µM [activator, single point]

**Q.** For `CCCOC(=O)c1c(Cl)c(Cl)c(Cl)c(Cl)c1C(=O)OCCC`, which Potency [1] is on record?
**A.** inactive

**Q.** Which Potency [1] does the source give for `COCCOCC(OC)OC` here?
**A.** inactive

**Q.** Which Potency [1] does the source give for `CCOC(=O)c1ccc(NC(=O)CN2CCCCC2)cc1` here?
**A.** inactive

**Q.** For `C[C@@H](CN1CC(=O)NC(=O)C1)N1CC(=O)NC(=O)C1`, which Potency [1] is on record?
**A.** inactive

**Q.** Which Potency [1] does the source give for `CCCCN1C[C@H](O)[C@@H](O)[C@H](O)[C@H]1CO` here?
**A.** inconclusive: 10.7 µM [rising, single point]

**Q.** And the Potency [2]?
**A.** inactive

**Q.** For `Cc1nc(N)nc(N)c1-c1ccc(Cl)c(Cl)c1`, which Potency [1] is on record?
**A.** inconclusive: 0.952 µM [cytotoxic, full curve]

**Q.** What does the source list for `CNS(=O)(=O)CCc1ccc2[nH]cc(C3CCN(C)CC3)c2c1`?
**A.** Potency [1]: inactive; Potency [2]: inactive

**Q.** Which Potency [1] does the source give for `CCCCN(CCCC)C(C(N)=O)c1ccc(OC)cc1` (configuration not stated) here?
**A.** inconclusive: 26.8 µM [cytotoxic, partial curve, poor fit]

**Q.** With `COCCOCCOCCO` as the compound, how does the Potency [1] read?
**A.** inactive

**Q.** Which Potency [1] does the source give for `CCOC(=O)COc1cc(-n2ncc(C(F)(F)F)c(C)c2=O)c(F)cc1Cl` here?
**A.** inactive

**Q.** For `O=C(O)c1c(Cl)cccc1Cl`, which Potency [1] is on record?
**A.** inactive

**Q.** With `Cc1cc(CC(=O)O)n(C)c1C(=O)c1ccc(Cl)cc1` as the compound, how does the Potency [1] read?
**A.** inactive

**Q.** Which Potency [1] does the source give for `CC12CCC(CC1)C(C)(C)O2` here?
**A.** inactive

**Q.** Which Potency [1] does the source give for `CN[C@@H]1[C@H](O)[C@H](NC)[C@H]2O[C@@]3(O)C(=O)C[C@@H](C)O[C@H]3O[C@@H]2[C@H]1O` here?
**A.** inactive

**Q.** Which Potency [1] does the source give for `COC(=O)CC(=O)OC` here?
**A.** inactive

**Q.** For `C[C@@H]1NC(=O)[C@@H](N)CNC(=O)[C@H](C2CCNC(N)=N2)NC(=O)/C(=C/NC(N)=O)NC(=O)[C@H](CNC(=O)C[C@@H](N)CCCN)NC1=O` (some centres not stated), which activity change, negative = cytotoxic [1] is on record?
**A.** inactive: 0.857% [at 0.29 µM]

**Q.** Which Potency [1] does the source give for `O=C1c2ccccc2C(=O)c2c1ccc(O)c2O` here?
**A.** inactive

**Q.** With `CC(C)(c1cc(Br)c(OCC(Br)CBr)c(Br)c1)c1cc(Br)c(OCC(Br)CBr)c(Br)c1` (configuration not stated) as the compound, how does the Potency [1] read?
**A.** inactive

**Q.** Which Potency [1] does the source give for `CC(N)C12CC3CC(CC(C3)C1)C2` (configuration not stated) here?
**A.** inactive

**Q.** For `CCC(Cl)CC(Cl)C(Cl)C(Cl)C(Cl)C(C)Cl` (configuration not stated), which Potency [1] is on record?
**A.** inconclusive: 8.46 µM [rising, partial curve]

**Q.** What about the Potency [2] of the same compound?
**A.** inconclusive: 8.46 µM [activator, single point]

**Q.** And the Potency [4]?
**A.** inconclusive: 8.46 µM [rising, single point]

**Q.** What about the Potency [5] of the same compound?
**A.** inconclusive: 8.46 µM [rising, partial curve]

**Q.** And the Potency [6]?
**A.** inconclusive: 8.46 µM [activator, single point]

**Q.** What about the Potency [11] of the same compound?
**A.** inconclusive: 8.46 µM [rising, single point]

**Q.** And the Potency [8]?
**A.** inconclusive: 8.46 µM [activator, single point]

**Q.** With `O=C(O)c1cc(=O)c2ccccc2o1` as the compound, how does the Potency [1] read?
**A.** inactive

**Q.** What about the Potency [2] of the same compound?
**A.** inactive

**Q.** For `Oc1cc(Cl)cc(Cl)c1Cl`, which Potency [1] is on record?
**A.** inconclusive: 63.2 µM [cytotoxic, single point]

**Q.** What about the Potency [2] of the same compound?
**A.** inconclusive: 50.2 µM [activator, single point]

**Q.** And the Potency [4]?
**A.** inconclusive: 56.3 µM [cytotoxic, single point]

**Q.** What about the Potency [5] of the same compound?
**A.** inconclusive: 56.3 µM [cytotoxic, single point]

**Q.** What about the Potency [6] of the same compound?
**A.** inconclusive: 56.3 µM [activator, single point]

**Q.** And the Potency [10]?
**A.** inactive

**Q.** And the Potency [8]?
**A.** active: 50.2 µM

— PubChem BioAssay (Tox21)
